This is one part of the list. Most values come without repeats; read them as rough.
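Also: cells treated in 1,536-well plates, then fixed and DAPI-stained, with nuclei counted from automated high-throughput microscope images.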

This test concerns WM3619. Nature of the test: cell count relative to DMSO control; melanoma cells; higher = more viable cells. The conditions noted are these: library dose: standard library concentration; 72 h.
`Cc1cc(Nc2cc(N3CCN(C)CC3)nc(Sc3ccc(NC(=O)C4CC4)cc3)n2)n[nH]1` [Tozasertib] + O=C(CCCCCCC(=O)Nc1ccccc1)NO [vorinostat] (first compound 0.03 µM, partner dose 0.4 µM) gave a cell count of 72.9%.

`Cc1cc(Nc2cc(N3CCN(C)CC3)nc(Sc3ccc(NC(=O)C4CC4)cc3)n2)n[nH]1` [Tozasertib] + Nc1nc(F)nc2c1ncn2[C@@H]1O[C@H](CO)[C@@H](O)[C@@H]1O [fludarabine] (first compound 0.03 µM, partner dose 1 µM) displayed a cell count of 75.8%.

As for `N#CC[C@H](C1CCCC1)n1cc(-c2ncnc3[nH]ccc23)cn1` [ruxolitinib] + CO[C@@H]1[C@H](N(C)C(=O)c2ccccc2)C[C@H]2O[C@]1(C)n1c3ccccc3c3c4c(c5c6ccccc6n2c5c31)C(=O)NC4 [Midostaurin] (first compound 5 µM, partner dose 0.4 µM), the cell count was 60.9%.

`Cc1cc(Nc2cc(N3CCN(C)CC3)nc(Sc3ccc(NC(=O)C4CC4)cc3)n2)n[nH]1` [Tozasertib] + COc1cc2c(Oc3ccc4[nH]c(C)cc4c3F)ncnc2cc1OCCCN1CCCC1 [cediranib] (first compound 0.03 µM, partner dose 2 µM) gave a cell count of 64%.

In turn, `N#CC[C@H](C1CCCC1)n1cc(-c2ncnc3[nH]ccc23)cn1` [ruxolitinib] + O=C(/C=C/c1cccnc1)NCCCCC1CCN(C(=O)c2ccccc2)CC1 [FK866] (first compound 5 µM, partner dose 0.05 µM) showed a cell count of 84.9%.

Compound `CC[C@]1(O)C[C@H]2CN(CCc3c([nH]c4ccccc34)[C@@](C(=O)OC)(c3cc4c(cc3OC)N(C=O)[C@H]3[C@@](O)(C(=O)OC)[C@H](OC(C)=O)[C@]5(CC)C=CCN6CC[C@]43[C@@H]65)C2)C1` [vincristine] + COc1cc(Nc2ncc(F)c(Nc3ccc4c(n3)NC(=O)C(C)(C)O4)n2)cc(OC)c1OC [Tamatinib] (first compound 0.0005 µM, partner dose 2 µM) gave a cell count of 37.1%.

For `N#CC[C@H](C1CCCC1)n1cc(-c2ncnc3[nH]ccc23)cn1` [ruxolitinib] + CC1(C)NC(=O)N(c2ccc([N+](=O)[O-])c(C(F)(F)F)c2)C1=O [nilutamide] (first compound 5 µM, partner dose 5 µM), the cell count turned out to be 67.9%.

`CC[C@]1(O)C[C@H]2CN(CCc3c([nH]c4ccccc34)[C@@](C(=O)OC)(c3cc4c(cc3OC)N(C=O)[C@H]3[C@@](O)(C(=O)OC)[C@H](OC(C)=O)[C@]5(CC)C=CCN6CC[C@]43[C@@H]65)C2)C1` [vincristine] + CC1(C)NC(=O)N(c2ccc([N+](=O)[O-])c(C(F)(F)F)c2)C1=O [nilutamide] (first compound 0.0005 µM, partner dose 5 µM) displayed a cell count of 66.2%.

`CC[C@]1(O)C[C@H]2CN(CCc3c([nH]c4ccccc34)[C@@](C(=O)OC)(c3cc4c(cc3OC)N(C=O)[C@H]3[C@@](O)(C(=O)OC)[C@H](OC(C)=O)[C@]5(CC)C=CCN6CC[C@]43[C@@H]65)C2)C1` [vincristine] + COC(=O)c1sccc1S(=O)(=O)Nc1ccc(Nc2ccccc2)cc1OC [GSK0660] (first compound 0.0005 µM, partner dose 5 µM): the cell count stood at 36.7%.

For `N#CC[C@H](C1CCCC1)n1cc(-c2ncnc3[nH]ccc23)cn1` [ruxolitinib] + CS(=O)(=O)CCNCc1ccc(-c2ccc3ncnc(Nc4ccc(OCc5cccc(F)c5)c(Cl)c4)c3c2)o1 [lapatinib] (first compound 5 µM, partner dose 4 µM), the cell count was 85%.

In turn, `Cc1cc(Nc2cc(N3CCN(C)CC3)nc(Sc3ccc(NC(=O)C4CC4)cc3)n2)n[nH]1` [Tozasertib] + C[C@]1(c2nc3c(C(N)=O)cccc3[nH]2)CCCN1 [Veliparib] (first compound 0.03 µM, partner dose 7 µM) had a cell count of 64.5%.

Compound `N#CC[C@H](C1CCCC1)n1cc(-c2ncnc3[nH]ccc23)cn1` [ruxolitinib] + Cn1cncc1[C@@](N)(c1ccc(Cl)cc1)c1ccc2c(c1)c(-c1cccc(Cl)c1)cc(=O)n2C [tipifarnib] (first compound 5 µM, partner dose 0.05 µM) displayed a cell count of 109%.

`CC[C@]1(O)C[C@H]2CN(CCc3c([nH]c4ccccc34)[C@@](C(=O)OC)(c3cc4c(cc3OC)N(C=O)[C@H]3[C@@](O)(C(=O)OC)[C@H](OC(C)=O)[C@]5(CC)C=CCN6CC[C@]43[C@@H]65)C2)C1` [vincristine] + Cc1cc(Nc2cc(N3CCN(C)CC3)nc(/C=C/c3ccccc3)n2)n[nH]1 [ENMD2076] (first compound 0.0005 µM, partner dose 0.2 µM) showed a cell count of 54.2%.

In the case of `Cc1cc(Nc2cc(N3CCN(C)CC3)nc(Sc3ccc(NC(=O)C4CC4)cc3)n2)n[nH]1` [Tozasertib] + CC(C)CCN1c2nc(Nc3cc(F)c(O)c(F)c3)ncc2N(C)C(=O)C1C [BID1870] (first compound 0.03 µM, partner dose 1 µM), the cell count is 66.7%.

Compound `CC[C@]1(O)C[C@H]2CN(CCc3c([nH]c4ccccc34)[C@@](C(=O)OC)(c3cc4c(cc3OC)N(C=O)[C@H]3[C@@](O)(C(=O)OC)[C@H](OC(C)=O)[C@]5(CC)C=CCN6CC[C@]43[C@@H]65)C2)C1` [vincristine] + CN(NC(=O)CC(=O)NN(C)C(=S)c1ccccc1)C(=S)c1ccccc1 [STA4783] (first compound 0.0005 µM, partner dose 0.03 µM) came in with a cell count of 10.3%.

`CC[C@]1(O)C[C@H]2CN(CCc3c([nH]c4ccccc34)[C@@](C(=O)OC)(c3cc4c(cc3OC)N(C=O)[C@H]3[C@@](O)(C(=O)OC)[C@H](OC(C)=O)[C@]5(CC)C=CCN6CC[C@]43[C@@H]65)C2)C1` [vincristine] + CO[C@@H]1[C@H](N(C)C(=O)c2ccccc2)C[C@H]2O[C@]1(C)n1c3ccccc3c3c4c(c5c6ccccc6n2c5c31)C(=O)NC4 [Midostaurin] (first compound 0.0005 µM, partner dose 0.4 µM) displayed a cell count of 70.1%.

The compound `N#CC[C@H](C1CCCC1)n1cc(-c2ncnc3[nH]ccc23)cn1` [ruxolitinib] + CN1CCN(c2ccc3nc(-c4c(N)c5c(F)cccc5[nH]c4=O)[nH]c3c2)CC1 [Dovitinib] (first compound 5 µM, partner dose 0.5 µM) had a cell count of 79.9%.

Compound `N#CC[C@H](C1CCCC1)n1cc(-c2ncnc3[nH]ccc23)cn1` [ruxolitinib] + CN(C)S(=O)(=O)c1ccc2c(c1)/C(=C/c1cc3c([nH]1)CCCC3)C(=O)N2 [SU6656] (first compound 5 µM, partner dose 2 µM) gave a cell count of 104%.

As for `Cc1cc(Nc2cc(N3CCN(C)CC3)nc(Sc3ccc(NC(=O)C4CC4)cc3)n2)n[nH]1` [Tozasertib] + O=C(Nc1cccc(Cl)c1)Nc1ncc(CCNc2ncnc3ccsc23)s1 [SNS314] (first compound 0.03 µM, partner dose 0.004 µM), the cell count is 63.5%.

On to `CC[C@]1(O)C[C@H]2CN(CCc3c([nH]c4ccccc34)[C@@](C(=O)OC)(c3cc4c(cc3OC)N(C=O)[C@H]3[C@@](O)(C(=O)OC)[C@H](OC(C)=O)[C@]5(CC)C=CCN6CC[C@]43[C@@H]65)C2)C1` [vincristine] + COc1ccc(Cl)c(Nc2nc3ccccc3nc2NS(=O)(=O)c2cccc(NC(=O)C(C)(C)N)c2)c1 [XL147] (first compound 0.0005 µM, partner dose 4 µM), for which the cell count was 55.5%.

Take `CC[C@]1(O)C[C@H]2CN(CCc3c([nH]c4ccccc34)[C@@](C(=O)OC)(c3cc4c(cc3OC)N(C=O)[C@H]3[C@@](O)(C(=O)OC)[C@H](OC(C)=O)[C@]5(CC)C=CCN6CC[C@]43[C@@H]65)C2)C1` [vincristine] + CO[C@H]1C[C@@H]2CC[C@@H](C)[C@@](O)(O2)C(=O)C(=O)N2CCCC[C@H]2C(=O)O[C@H]([C@H](C)C[C@@H]2CC[C@@H](OCCO)[C@H](OC)C2)CC(=O)[C@H](C)/C=C(\C)[C@@H](O)[C@@H](OC)C(=O)[C@H](C)C[C@H](C)/C=C/C=C/C=C/1C [everolimus] (first compound 0.0005 µM, partner dose 0.1 µM): the cell count amounted to 51.1%.

Take `N#CC[C@H](C1CCCC1)n1cc(-c2ncnc3[nH]ccc23)cn1` [ruxolitinib] + c1cc(-c2cnn3cc(-c4ccc(OCCN5CCCCC5)cc4)cnc23)ccn1 [Dorsomorphin] (first compound 5 µM, partner dose 2 µM): the cell count was determined as 67.8%.

For the compound `Cc1cc(Nc2cc(N3CCN(C)CC3)nc(Sc3ccc(NC(=O)C4CC4)cc3)n2)n[nH]1` [Tozasertib] + C[C@@H]1CCN(C(=O)CC#N)C[C@@H]1N(C)c1ncnc2[nH]ccc12 [CP690550] (first compound 0.03 µM, partner dose 5 µM), the cell count came out at 75.3%.

Compound `N#CC[C@H](C1CCCC1)n1cc(-c2ncnc3[nH]ccc23)cn1` [ruxolitinib] + O=c1[nH]nc(Sc2ncc([N+](=O)[O-])s2)n1-c1ccc2c(c1)OCCO2 [BI78D3] (first compound 5 µM, partner dose 1 µM) came in with a cell count of 86.2%.

As to `N#CC[C@H](C1CCCC1)n1cc(-c2ncnc3[nH]ccc23)cn1` [ruxolitinib] + OCCn1cc(-c2cnc3nnn(Cc4ccc5ncccc5c4)c3n2)cn1 [PF04217903] (first compound 5 µM, partner dose 5 µM), the cell count was 88.6%.
